Assay results from patent publication US10869844B2, “Methods for the treatment of depression” (Janssen Pharmaceutica NV, priority 2014, dated 2020).

What was measured:
[1] = test system: adult subjects with treatment resistant depression; format: in vivo, human; details: ketamine subjects; Days 3 or 4, 8, 15 and 29
adult subjects with TRD = details: after the 1st infusion (up to Day 4)

SMILES | Remit rates, Met carriers vs Val/Val [1] | Reduction in MADRS total score, Val/Val vs Met carriers (adult subjects with TRD)
CNC1(c2ccccc2Cl)CCCCC1=O (racemic) [Ketamine, ketamine] | remit rates were higher in Met carriers than in Val/Val subjects, except on Day 3 or Day 4 | –
CN[C@]1(c2ccccc2Cl)CCCCC1=O.Cl [Esketamine, (S)-2-(2-chlorophenyl)-2-(methylamino)cyclohexanone hydrochloride] | – | Larger reductions in MADRS total score were observed in Val/Val subjects as compared to Met carriers
